# In all, about 2,300 sequences were measured (“median log2 fold change of GCK-ALFA target abundance (FLAG IP / Myc IP barcode read proportion)”: median about 0.095, lowest 2% from about -0.47 on). Some of the results follow.
# B1: LC3A_28_788 (protein)
# chain: SKLKENADKALAEAKAAAAAGESTVITIEVSGEATEEDIEYVIEKLKEIAEVLKDVENQAIIIDVSKDVKEEHLNKLMDAADEVEEKYPNVTVIIALEER
# B2: LC3A_3_1468 (protein)
# chain: MDPAVAALAAALRARGVPEEQIARIVAAAERLAEHGVLDVIVETLEAALAHPSATPEQLVEIAEETLRLAVEEGLSREEVREEAKVLLLERVEIEEIDEE
# B3: LC3A_3_1459 (protein)
# chain: SPALIARARAILEANGFSPETIAAAVRLLEALAARGYEEAQKTLLAEIEKLKDVSSEIMLAMFEELLALVETEDLTEEEVVAAIKEEAAAARSEQEIIEL
# B4: LC3A_free_46_2385 (protein)
# chain: YKAIIDVDFGAMDRETAEEIAEKIKKAAEEISKKYGVKVEVEVEIIEDPDGEYYLRVRITIEGEDKEKVEAAVNELIDKIDEIAEEAGVSYIISVEFIDE
# B5: LC3A_free_0_2109 (protein)
# chain: MIVEGEVVAISKEPVSDEDAEKLLKAAKEKAKEIEKKYGAKTEVTAERIDGRLVLTIKITAEGLSIEEMDEILNEVADFIEKKAKELGKEVTIYLSIEEL
# B6: LC3A_74_2076 (protein)
# chain: KLTPEEVEEVDEAIAFAELLRILAKEHPEKKEELLKAAKEALEAAEEVIKKSGLDLDLLLEGGRIEAELLYLKKEYTVEEALKKLKEELKKVKEILKKLE
# B7: LC3A_3_1531 (protein)
# chain: LEERVEKRLEELKAAGASEETLEAFKETAELLKEKGYEEALETLIEEADELKDVPNELFLDFFKEVLELVKTSDLSEEELVEEIKEIARTVKNESEIIEL
# B8: LC3A_3_1539 (protein)
# chain: LEEEIEAALALLREAGASEETLAAFREAAEALLERGYEEALRELIRETRELIDAPSELLLAFFEEVLALVRTSDLSEEELIAEIRRIARTTRNEAEIEEL
# B9: LC3A_28_811 (protein)
# chain: SHVDEVIAAVKEEGEKLKNSKEDVLLEVRVSGDITVEEAERLMDAIEEIARELAKNRKVYIVITAEEPISQEVLDTILDRAEEIEEKYPNVSVIVALPEE
# B10: LC3A_3_1663 (protein)
# chain: MDALIAATLAWLAAQGRSAETLAAVRAALTALAARGYEETLRTFAALLRELAGLSDELLLELAREVLELVETSDLDEEAMTERVREIARTIRSEAEIEEL
# B11: LC3A_free_46_2409 (protein)
# chain: YKAEIDIYALAETKEKAEKFAEEVKKAAEEIAKKYGIKVEIKVEISKLPDGTYFVEIRITLEAETKETLEKAVNELIDKIEEIAEKLGVSIMISYEIEEK
# B12: LC3A_102_155 (protein)
# chain: RIEELLERTEEEIRRLAEELARTLSPEEAEELRRLVAEALELLRRYAEELKIGAQHDFETVEGVRAELELEELIERLEEMGAEEIARALREGLERLKELA
# B13: LC3A_3_1661 (protein)
# chain: MEELIKKTLEYLKEKGKSEEVLEAVKEALEALIEKGYEEAAKVFAELMKELEDLSDELLLDLAEEVKELVETSNISEEEMTKKIKEIARVTRLEAEIEEL
# B14: LC3A_102_130 (protein)
# chain: TKEEKIKEAIEKELKEIEKILEKDKSLTEEEKKELLEAARTALEAEAESATAEAQHGFVDIEAEDKMLEALEYLKEKSEEVYEATKKAIERIRKLVEELA
# B15: LC3A_free_39_2278 (protein)
# chain: SPERAAAIDARLDAIAASMSPEAAANLARLREIFADDPEARARLAEALERAREEGADMEEVTARALEIALEGQAEGLSREEIAERVLEEIEDMINLIPLD
# B16: LC3A_128_225 (protein)
# chain: SEKVEDLIESLERALEDLKKLATTPELQKLLAEAEKKLEELKKLVKEGASKEEIIKQATELLKIVKEFLELARKKGVPDTVALNAAEIDLAEAEEELEEI
# B17: LC3A_28_1223 (protein)
# chain: SHVDAEIAAARAQLEAAKAAGEEALVTVTITKDTTVEDARRMMEEIERMVAEAADLPAISIIIDFEAGVSQEVIDTAIELGERIEEKYPNVTVLFALDEE
# B18: LC3A_147_435 (protein)
# chain: WRAVVDISILTKNAKEEVLAALEALVAELRAQGYEVELEIEVEELENGVVFIDATITVRAETREEAEAAADFVVDRIDEIEEKLKDKILGSIISRSIEEE
# B19: LC3A_free_26_2156 (protein)
# chain: EEFLDIYSIDRAEEKLEEALKLAEETEGIPEELKELIKQAIEEVKKETLESLEKAIELLEEALKLVEELPEELKEEAEKLKKLLEEAIEELKENVKIMKE
# B20: LC3A_17_547 (protein)
# chain: KEEIKKKLEELLKELKKLVEKLKPYDPEAAKKLEKELKKAEKLLKAGKLKEAAEALIKAAREAADAWEELEPEKGVEASVLAMEANGIEIEAIGLLLKLE
# B21: LC3A_147_408 (protein)
# chain: YVTEVIIDILTKDAEEEVIARFKEIKKELEAKGYKVELKIEVEKLENGVTYIEVTIKVEAETEEEAKEAADFVLDKIDELEEELKDKILGSLISVEISEA
# B22: LC3A_28_936 (protein)
# chain: MTVEERIEEALAKAREAAEAGEPVVITITVTKDDTQEEVEKIIEAIREIAEILKDVKGAAIIVDVEAGVPQERVDKIADELEKIEKEYPNINAILALDED
# B23: LC3A_28_1163 (protein)
# chain: SKTRKSIEEALKEAKEAAAAGEPKAIVLEVEGGITEEETEEVIEALYEIAELLADVEGSAIVINVSSGVSQENLDKIMDAAEEIEERYPNVTVIIALDED
# B24: LC3A_3_1458 (protein)
# chain: IEKAKKEAEKILKENGADEETIKAALKLLDALAKKGYEKAIERVIEELKKMKNVPSEILLDMFEELLEIVETEDLSEEEVIKKIDEEAAAAKAEAEIEEL
# B25: LC3A_3_1872 (protein)
# chain: MEEELKETIEALKKAGASEETIKLFRENMELLKERGYEEAAKTLIEETRKLLDAPSELLLEFAEDVLELLKTEDLSEEELIERIKEIARLTRNEAEIIEL
# B26: LC3A_28_1256 (protein)
# chain: SALEENLERALAEVREAVERGEEAVVTITVPAGVTEEQVEQVIETMEEIAELSKSLPRTTIIVDVEAGVAQEHIDQLIDKGEELEEKYPNLTVIFALEEE
# B27: LC3A_free_46_2420 (protein)
# chain: MTLDIDIDVLAKTEETAKAVAKELTKTLEDTAKELGVKVEIKVEIEKLEDGTYYVHIDATFTGVTEEQAQQIEDKVIDKVEELEKKYPEILGSIISSELE
# B28: LC3A_147_412 (protein)
# chain: MEVEIDILVKSEEAVEKVKEAFEETVEELREKGFEVELEIEVEEIEPGVYYVEVRIRIKAETEEEAKEAANYVLDAIDELEEELKDEILGSLISVTLEKE
# B29: LC3A_132_270 (protein)
# chain: SSELLEKALEELFAILDKIVELLVAGKDPWPAIKELDKKAKEYAKKLSLEDTEELVDKSKAYAAELFAARVDPNDAEARRVLDHIEMLLDSVLIEKELAS
# Target: MAP1LC3A, Q9H492
# Assay: median log2 fold change of GCK-ALFA target abundance (FLAG IP / Myc IP barcode read proportion) (log2 ratio); each designed protein is fused to an ALFA-tag nanobody in HEK293 cells to bring the named protein to FLAG-tagged glucokinase (GCK); Myc marks an untargeted standard; higher = target protein stabilised (more abundant)
# Settings: target protein: 3xFLAG-MCP-GCK-ALFA reporter; HEK293 landing pad (RPLP)
# Method in brief: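 Binders fused to an ALFA nanobody were recombined as a library into HEK293 landing-pad cells, which were induced with 2 μg mL^−1 doxycycline and then transfected to express a FLAG-tagged target and a Myc-tagged standard. After 48 h, circular RNA barcodes recovered by anti-FLAG and anti-Myc immunoprecipitation of lysates were reverse transcribed, amplified and sequenced. Each binder's target abundance is the median log2 ratio of FLAG to Myc barcode read proportions, from barcodes present at ≥10^−7 in both replicates, binders carrying ≥3 barcodes per replicate, a 10^−6 pseudocount and pooled replicates.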
row,Binder,median log2 fold change
1,B1,-0.0358
2,B2,0.182
3,B3,0.111
4,B4,0.0817
5,B5,-0.0406
6,B6,0.186
7,B7,0.197
8,B8,0.318
9,B9,-0.124
10,B10,0.262
11,B11,1.12
12,B12,0.0763
13,B13,0.286
14,B14,-0.155
15,B15,0.221
16,B16,0.227
17,B17,-0.219
18,B18,0.0484
19,B19,0.448
20,B20,0.0461
21,B21,-0.171
22,B22,0.153
23,B23,-0.0192
24,B24,-0.00536
25,B25,0.135
26,B26,-0.127
27,B27,-0.177
28,B28,-0.156
29,B29,0.22
